Data from the supplement of paper PMC11417369.
± gives the standard deviation of the averaged measurements. The list shows a part of the results.

System: PfAP2-LT AP2 domain (GST-tagged)
Test: gcPBM binding intensity (ln(normalized median fluorescence intensity)); higher = stronger DNA binding
In short: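 Probes on an Agilent 4 × 180k array were primer-extended, double-stranded and 36 bp long, taken from intergenic genomic regions, with negative controls added. GST-tagged P. falciparum DNA-binding domains from E. coli, about 25 μg on average, were applied to the array for 1 h in 1× PBS containing 1% milk, 0.2 mg/ml BSA, 0.5% salmon testes DNA and 0.03% Triton X-100. Binding intensity, obtained after Alexa488 anti-GST antibody detection and a 488 nm scan, is the highest Masliner-normalised natural-log median intensity across replicate spots of either probe orientation.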

Row | Sequence | gcPBM binding intensity (ln)
1 | CAAAAATAAACTATAGTACACACTTATTATTATGAA [CACACA_site2702] | 8.8 ± 0.49
2 | TTTTTATGTAGAATTTTTTTATTTTTTCAAAATGGA [CACACA_negctrl_site166] | 7.98 ± 0.44
3 | ATTGTAATCATATGAAGTACTAATATATATTTTAAT [XGTACX_site8350] | 8.69 ± 0.36
4 | ATTTATAAAATTAATAGTACATATATTTATATATAT [XGTACX_site4173] | 8.57 ± 0.4
5 | TATTGCACAAAATAATTTTATTATACTTTATGTTAG [TGCATGCA_negctrl_site574] | 8.52 ± 0.57
6 | TTTTAAATAAAATATTGTACATTAAAATTGTAATAT [XGTACX_site2128] | 8.22 ± 0.38
7 | ATTATAAATATGTATATACACACTTTTAATATTCAT [CACACA_site9367] | 8.96 ± 0.36
8 | TAAGATAAATGATAAAGTACTTTTTTTTTTTAAATA [XGTACX_site2326] | 8.21 ± 0.51
9 | AAGCAAACATATTAATGTACACACACCCACACACAA [XGTACX_site5806] | 9.95 ± 0.46
10 | AATTTTAAAAATATAACACACATATATAAAATATAT [CACACA_site3610] | 8.74 ± 0.42
11 | AATGAAGAAAAAAAAAGTACATTATTTTTAAAACTT [XGTACX_site563] | 8.54 ± 0.38
12 | AATTGTCAGAGAATATGTACTTAAGTATTTATTGTT [XGTACX_site1947] | 8.88 ± 0.42
13 | AATGCATTGATTGCATTCAAAAAAAAAAAAAAAAAA [XGTACX_negctrl_site597] | 8.29 ± 0.45
14 | AATCATAAAGAACATATAATATATATATATATATAT [CACACA_negctrl_site316] | 9.31 ± 0.43
15 | AATAAGATATCTACAACACACATTTAATTTTTTTTT [CACACA_site1641] | 8.71 ± 0.51
16 | TAAATAAAAAAACACACACACATATATATATATATA [CACACA_site2269] | 10.2 ± 0.36
17 | ATAAAAAAATAAAACACACACATATATATTATATAT [CACACA_site2810] | 9.31 ± 0.28
18 | AATATATGCTTTCGTTATATTAAATTCAATTTAATG [GTGCAC_negctrl_site76] | 8.53 ± 0.4
19 | TCTTATATATTTATTTGTACATATATATATATATAT [XGTACX_site7214] | 9.07 ± 0.49
20 | AACAACTATTAATTTACACACATGTATTTATTTTAC [CACACA_site5683] | 9.3 ± 0.4
21 | TGTATTACGAAAAAATGTACAGAAAAAGAAACAAAA [XGTACX_site2777] | 8.82 ± 0.56
22 | TTTGTCATAAGCAATGCATGTAAGTTTCTGACATTA [TGCATGCA_site1007] | 8.47 ± 0.29

Row | Sequence | gcPBM binding intensity (ln)
23 | TGGGATAGATCATTTACACACACAAAAAAAAAAAAA [CACACA_site2140] | 9.25 ± 0.42
24 | TCTAATAATAAATACACACACATATATATTTATATA [CACACA_site5169] | 9.15 ± 0.23
25 | TTTTTTTTTGAAAAAAGTACTTAATTTTTAAGAAGA [XGTACX_site3591] | 7.83 ± 0.3
26 | AAGGAATGCATATAGGTGCTACACATAAAAATAAAA | 9.02 ± 0.6
27 | TACTTTTTTCCTATTATGTTTCTTATTTTTATAAAT [XGTACX_negctrl_site561] | 8.69 ± 0.49
28 | TTAAGTAGTACATACACACACATATACAAAAAGAAA [CACACA_site3972] | 9.63 ± 0.49
29 | GTCAACAAGAATTAAGTGCATAATTTTTTATTAAAT [GTGCAC_site9492] | 8.64 ± 0.43
30 | ATACAGATAGGATGCACACATAATTCAAATACAATA [CACACA_site4531] | 9.28 ± 0.49
31 | ATATAATAATAATATTGTACAATAAAAAATATATAT [XGTACX_site7350] | 8.89 ± 0.47
32 | AGTAATAATCGGCATGCATGTCAGTGGTAGTATATA [TGCATGCA_site312] | 9.35 ± 0.4
33 | ATGTCAAGAACTGAACGTACAAACTTTGTAATATTG [XGTACX_site8754] | 9.01 ± 0.39
34 | AAATTTTATGTATAATGTACACATAAATTTTTCTTT [XGTACX_site7266] | 8.54 ± 0.43
35 | GGAATATTAAAAAAATGTACAAAAAATAATATCCAT [XGTACX_site2596] | 9.01 ± 0.4
36 | AGTAAAAAAAAAAAAAAAAAAAAAAAAAAAAAAAAA [GTGCAC_negctrl_site147] | 8.12 ± 0.028
37 | TATTAATATTTTTGTTGTACTTAAAAATGATGGTAG [XGTACX_site3501] | 8.37 ± 0.37
38 | TATTATTTTAATTATTCACACATTATTATAAAAATT [CACACA_site5538] | 8.48 ± 0.45
39 | CATATACACGAACACACACACATATAAATAAATATA [CACACA_site6379] | 9.74 ± 0.29
40 | ATATATACGTATGAATGTATATTTGTTTGAATTTTT [CACACA_negctrl_site524] | 8.79 ± 0.37
41 | TTTATATATTAATATGCACACACAAGAAGTAATTAT [CACACA_site9045] | 9.2 ± 0.3
42 | AATAATAACATACAGACACACACGTAAAAGCACGTG [CACACA_site253] | 9.29 ± 0.43
43 | AATGGGTAAACATACACACACACATATATATATATA [CACACA_site1991] | 10.2 ± 0.11
44 | TATAATGTTAAATAATGTACATATATTTTTTTTTTT [XGTACX_site4722] | 8.5 ± 0.51
